Measured values taken from article PMC11546610, “Molecular Modeling and In Vitro Functional Analysis of the RGS12 PDZ Domain Variant Associated with High-Penetrance Familial Bipolar Disorder” (International Journal of Molecular Sciences, 2024).
No constants are given. Whether binding was seen depends on the method and setting. Some binding calls cover weakened binding; strength is not graded here.

Legend:
Experiment in all cases: SPR; Biacore 3000; biotinylated peptides immobilised on streptavidin chips to 350 RU; RGS12 PDZ domain protein as analyte (10 nM to 500 μM; 300 μM in Figure 5D), 10 μL/min; 10 mM HEPES pH 7.4, 250 mM NaCl, 0.05% Nonidet P-40, 50 μM EDTA; mNotch1 peptide surface subtracted; both purified
[1] = molecular target: T1, CXCR2 C-terminal peptide, biotin-NH-…-carboxylic acid
T1 sequence (peptide, biotin on the N-terminus (biotin-NH-); C-terminal carboxylic acid): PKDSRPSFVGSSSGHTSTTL

[2] = molecular target: T2, SAPAP3 mutant (mt) C-terminal peptide, biotin-NH-…-amide (human)
T2 sequence (peptide, biotin on the N-terminus (biotin-NH-); C-terminal amide): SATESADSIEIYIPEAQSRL

[3] = molecular target: T3, SAPAP3 wt C-terminal peptide (aa 960-979), biotin-NH-…-carboxylic acid (human)
T3 sequence (peptide, biotin on the N-terminus (biotin-NH-); C-terminal carboxylic acid): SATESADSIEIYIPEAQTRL

[4] = molecular target: T4, mNotch1 C-terminal peptide, biotin-NH-…-carboxylic acid (mouse)
T4 sequence (peptide, biotin on the N-terminus (biotin-NH-); C-terminal carboxylic acid): PSQITHIPEAFK

binding [1]: binds | binding [2]: no binding (tested: 300 μM) | binding [3]: binds | binding [4]: no binding (tested: 500 μM)
B1: Recombinant RGS12 PDZ domain protein (Biacore analyte, as in ref. 65) (domain or fragment, UniProt O08774 21-97)
chain: SVEVARGRAGYGFTLSGQAPCVLSCVMRGSPADFVGLRAGDQILAINEINVKKASHEDVVKLIGKCSGVLRMVISEG
